Measurements as given in PMC9204302, “Novel Pharmacology Following Heteromerization of the Angiotensin II Type 2 Receptor and the Bradykinin Type 2 Receptor” (Frontiers in Endocrinology, 2022).
No constants are given. Whether binding was seen depends on the method and setting. In cells and extracts the contact can be indirect. Some entries that bind do so weakly or less than the wild type. Sequences can lack the tags named with a protein.

Sequences of proteins named here, by UniProt entry; tags and fusion partners are left off.
UniProt P32121: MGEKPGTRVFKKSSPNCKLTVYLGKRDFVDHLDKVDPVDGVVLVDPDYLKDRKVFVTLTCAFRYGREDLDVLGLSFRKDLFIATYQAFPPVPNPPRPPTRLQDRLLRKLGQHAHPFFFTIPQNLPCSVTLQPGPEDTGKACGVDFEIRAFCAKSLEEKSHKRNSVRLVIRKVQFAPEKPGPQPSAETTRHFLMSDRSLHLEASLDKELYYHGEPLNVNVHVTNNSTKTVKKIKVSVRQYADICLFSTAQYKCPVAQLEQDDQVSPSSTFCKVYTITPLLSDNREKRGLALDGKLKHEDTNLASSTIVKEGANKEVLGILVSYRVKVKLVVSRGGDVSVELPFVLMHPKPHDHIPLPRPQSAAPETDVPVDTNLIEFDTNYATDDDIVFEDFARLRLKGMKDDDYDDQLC
UniProt P19086: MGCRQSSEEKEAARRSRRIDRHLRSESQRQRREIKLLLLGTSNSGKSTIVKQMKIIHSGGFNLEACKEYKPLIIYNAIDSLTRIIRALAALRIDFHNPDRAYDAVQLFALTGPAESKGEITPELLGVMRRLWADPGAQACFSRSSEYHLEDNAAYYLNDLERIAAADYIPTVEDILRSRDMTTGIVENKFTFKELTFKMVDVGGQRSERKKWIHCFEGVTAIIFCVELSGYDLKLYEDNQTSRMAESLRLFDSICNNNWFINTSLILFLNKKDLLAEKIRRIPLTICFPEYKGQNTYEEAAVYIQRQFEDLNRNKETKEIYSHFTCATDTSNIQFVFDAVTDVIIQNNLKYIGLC

Assays:
[1] = target: T1, B2 receptor tagged with Rluc8 (B2-Rluc8) (human) (UniProt P30411); assay: FRET or BRET; BRET1/eBRET in live HEK293FT cells, one BRET-tagged receptor and one BRET-tagged interacting protein coexpressed, no second receptor; ligand-induced BRET after AngII or BK, 37°C
T1 sequence: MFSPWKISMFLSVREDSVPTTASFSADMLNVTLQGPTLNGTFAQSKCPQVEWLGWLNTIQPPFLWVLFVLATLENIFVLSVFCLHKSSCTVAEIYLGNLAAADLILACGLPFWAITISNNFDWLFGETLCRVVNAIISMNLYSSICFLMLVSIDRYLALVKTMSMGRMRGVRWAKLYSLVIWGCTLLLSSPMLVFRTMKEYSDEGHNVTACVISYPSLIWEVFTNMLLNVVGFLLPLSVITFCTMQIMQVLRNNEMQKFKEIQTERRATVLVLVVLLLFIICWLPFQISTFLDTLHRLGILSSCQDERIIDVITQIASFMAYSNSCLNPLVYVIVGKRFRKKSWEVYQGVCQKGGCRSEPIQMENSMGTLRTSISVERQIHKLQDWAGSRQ

[2] = target: T1, B2 receptor tagged with Rluc8 (B2-Rluc8) (human); assay: FRET or BRET; Receptor-HIT on the BRET platform in live HEK293FT cells: a BRET-tagged receptor, a second receptor without BRET tag and a BRET-tagged interacting protein coexpressed; ligand-induced BRET after BK, AngII or PGE2, 37°C; some panels with pretreatment with PD 123319 or icatibant
[3] = target: T2, B2 receptor without BRET tag (B2 and HA-B2, both referred to as B2) (human) (UniProt P30411); assay: as above
T2 sequence: T1 sequence

[4] = target: T3, Venus-tagged AT2 receptor (AT2-Venus, rat) (rat) (UniProt P35351); assay: FRET or BRET; BRET1/eBRET in live HEK293FT cells, one BRET-tagged receptor and one BRET-tagged interacting protein coexpressed, no second receptor; ligand-induced BRET after AngII or BK, 37°C
T3 sequence: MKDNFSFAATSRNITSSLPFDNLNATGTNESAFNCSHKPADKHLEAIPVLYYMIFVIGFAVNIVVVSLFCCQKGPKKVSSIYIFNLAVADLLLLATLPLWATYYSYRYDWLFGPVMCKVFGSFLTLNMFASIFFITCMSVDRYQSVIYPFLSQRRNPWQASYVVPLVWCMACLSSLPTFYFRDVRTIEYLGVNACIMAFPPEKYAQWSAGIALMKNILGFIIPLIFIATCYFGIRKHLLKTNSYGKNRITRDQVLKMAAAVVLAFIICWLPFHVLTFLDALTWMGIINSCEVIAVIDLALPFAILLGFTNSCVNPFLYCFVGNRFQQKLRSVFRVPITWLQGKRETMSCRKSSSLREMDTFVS

[5] = target: T3, Venus-tagged AT2 receptor (AT2-Venus, rat) (rat); assay: FRET or BRET; Receptor-HIT on the BRET platform in live HEK293FT cells: a BRET-tagged receptor, a second receptor without BRET tag and a BRET-tagged interacting protein coexpressed; ligand-induced BRET after BK, AngII or PGE2, 37°C; some panels with pretreatment with PD 123319 or icatibant
[6] = target: T4, Venus-tagged B2 receptor (B2-Venus) (human, UniProt P30411 1-391); assay: as above
T4 construct: made by replacing the Rluc8 coding region of B2-Rluc8 with Venus cDNA; C-terminal end of the tag follows from the parent B2-Rluc8; source: HEK293FT, transiently transfected, in live cells; not shown: Venus, C-terminal, kept
T4 sequence (looked up): T1 sequence

[7] = target: T4, Venus-tagged B2 receptor (B2-Venus); assay: FRET or BRET; BRET1/eBRET in live HEK293FT cells, one BRET-tagged receptor and one BRET-tagged interacting protein coexpressed, no second receptor; ligand-induced BRET after AngII or BK, 37°C
[8] = target: T5, Rluc8-tagged AT2 receptor (AT2-Rluc8, rat) (rat) (UniProt P35351); assay: FRET or BRET; Receptor-HIT on the BRET platform in live HEK293FT cells: a BRET-tagged receptor, a second receptor without BRET tag and a BRET-tagged interacting protein coexpressed; ligand-induced BRET after BK, AngII or PGE2, 37°C; some panels with pretreatment with PD 123319 or icatibant
T5 sequence: T3 sequence

## β-arrestin2 tagged with Venus (β-arrestin2-Venus) (from UniProt P32121 1-409)
[1]
  binding: binds
[2]
  binding: binds
[3]
  binding: binds

## Gαz tagged with Rluc8 (Gαz-Rluc8) (from UniProt P19086 1-355)
[4]
  binding: no binding
[5]
  binding: no binding

B1: Rluc8-tagged GRK2 (GRK2-Rluc8) (enzyme, UniProt P25098 1-689, looked up)
chain: MADLEAVLADVSYLMAMEKSKATPAARASKKILLPEPSIRSVMQKYLEDRGEVTFEKIFSQKLGYLLFRDFCLNHLEEARPLVEFYEEIKKYEKLETEEERVARSREIFDSYIMKELLACSHPFSKSATEHVQGHLGKKQVPPDLFQPYIEEICQNLRGDVFQKFIESDKFTRFCQWKNVELNIHLTMNDFSVHRIIGRGGFGEVYGCRKADTGKMYAMKCLDKKRIKMKQGETLALNERIMLSLVSTGDCPFIVCMSYAFHTPDKLSFILDLMNGGDLHYHLSQHGVFSEADMRFYAAEIILGLEHMHNRFVVYRDLKPANILLDEHGHVRISDLGLACDFSKKKPHASVGTHGYMAPEVLQKGVAYDSSADWFSLGCMLFKLLRGHSPFRQHKTKDKHEIDRMTLTMAVELPDSFSPELRSLLEGLLQRDVNRRLGCLGRGAQEVKESPFFRSLDWQMVFLQKYPPPLIPPRGEVNAADAFDIGSFDEEDTKGIKLLDSDQELYRNFPLTISERWQQEVAETVFDTINAETDRLEARKKAKNKQLGHEEDYALGKDCIMHGYMSKMGNPFLTQWQRRYFYLFPNRLEWRGEGEAPQSLLTMEEIQSVEETQIKERKCLLLKIRGGKQFILQCDSDPELVQWKKELRDAYREAQQLVQRVPKMKNKPRSPVVELSKVPLVQRGSANGL
notes: GPCR kinase 2 (GRK2); construct synthesized by GeneArt; also called GPCR kinase 2; source: HEK293FT, transiently transfected, in live cells
[6]
  binding: binds
[7]
  binding: binds

B2: prostaglandin E receptor 3 (EP3 receptor) (receptor, UniProt P43115 1-390)
chain: MKETRGYGGDAPFCTRLNHSYTGMWAPERSAEARGNLTRPPGSGEDCGSVSVAFPITMLLTGFVGNALAMLLVSRSYRRRESKRKKSFLLCIGWLALTDLVGQLLTTPVVIVVYLSKQRWEHIDPSGRLCTFFGLTMTVFGLSSLFIASAMAVERALAIRAPHWYASHMKTRATRAVLLGVWLAVLAFALLPVLGVGQYTVQWPGTWCFISTGRGGNGTSSSHNWGNLFFASAFAFLGLLALTVTFSCNLATIKALVSRCRAKATASQSSAQWGRITTETAIQLMGIMCVLSVCWSPLLIMMLKMIFNQTSVEHCKTHTEKQKECNFFLIAVRLASLNQILDPWVYLLLRKILLRKFCQIRYHTNNYASSSTSLPCQCSSTLMWSDHLER
[8]
  binding: no binding
